14 molecules from paper PMC8869358, “High-Throughput Chemical Screening and Structure-Based Models to Predict hERG Inhibition” (Biology, 2022) can be followed below.

Structures can show the parent of a compound that is named as a salt.

In the first series the target is T1, hERG (Homo sapiens, UniProt Q12809).
T1 sequence (Q12809 whole entry): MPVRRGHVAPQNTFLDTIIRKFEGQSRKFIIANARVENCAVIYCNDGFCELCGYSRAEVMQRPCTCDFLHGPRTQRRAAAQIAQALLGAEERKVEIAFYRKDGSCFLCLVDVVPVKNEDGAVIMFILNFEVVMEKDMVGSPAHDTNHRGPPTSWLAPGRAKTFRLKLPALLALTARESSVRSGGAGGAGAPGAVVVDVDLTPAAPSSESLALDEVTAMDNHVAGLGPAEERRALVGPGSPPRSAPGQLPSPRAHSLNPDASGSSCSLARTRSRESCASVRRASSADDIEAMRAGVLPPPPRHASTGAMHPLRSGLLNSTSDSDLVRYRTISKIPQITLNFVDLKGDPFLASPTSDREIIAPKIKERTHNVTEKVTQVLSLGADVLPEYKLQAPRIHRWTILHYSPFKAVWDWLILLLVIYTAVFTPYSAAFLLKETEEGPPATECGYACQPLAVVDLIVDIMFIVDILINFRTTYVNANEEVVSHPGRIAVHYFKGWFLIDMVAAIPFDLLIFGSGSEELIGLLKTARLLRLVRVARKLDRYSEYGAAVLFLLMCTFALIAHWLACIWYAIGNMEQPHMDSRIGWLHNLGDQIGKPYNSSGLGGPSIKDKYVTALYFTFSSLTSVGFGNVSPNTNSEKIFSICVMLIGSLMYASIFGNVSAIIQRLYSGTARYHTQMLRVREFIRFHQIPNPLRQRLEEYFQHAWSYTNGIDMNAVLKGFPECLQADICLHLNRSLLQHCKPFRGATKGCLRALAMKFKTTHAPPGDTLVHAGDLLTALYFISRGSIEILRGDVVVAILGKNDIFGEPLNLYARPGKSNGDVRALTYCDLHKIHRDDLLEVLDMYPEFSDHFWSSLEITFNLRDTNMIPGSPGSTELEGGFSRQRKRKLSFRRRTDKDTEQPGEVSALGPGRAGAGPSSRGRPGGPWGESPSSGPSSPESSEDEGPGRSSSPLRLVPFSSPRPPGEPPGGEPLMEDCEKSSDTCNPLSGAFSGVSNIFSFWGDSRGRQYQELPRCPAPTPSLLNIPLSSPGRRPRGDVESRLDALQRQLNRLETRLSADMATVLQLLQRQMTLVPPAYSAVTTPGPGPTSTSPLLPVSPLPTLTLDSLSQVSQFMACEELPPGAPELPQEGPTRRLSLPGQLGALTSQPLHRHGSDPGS
Assay: not given
Conditions: not given
On the procedure:
The hERG-U2OS cell line was purchased from Codex BioSolution, Inc. (Gaithersburg, MD, USA). All the cell culture reagents were obtained from Invitrogen (Life Technologies, Madison, WI, USA). The hERG-U2OS cells were cultured in DMEM with Glutamax containing 10% fetal bovine serum (FBS), 1% of Non-Essential AA (NEAA), 50 U/mL penicillin, 50 μg/mL streptomycin, and 1 µg/mL puromycin. The cells were maintained at 37 °C under a humidified atmosphere and 5% CO2.
A FluxORTM thallium flux assay was performed in hERG-U2OS cells with stable hERG expression, as previously described. In this assay, thallium ions are used as surrogates for K^+ ions to monitor the activity of the hERG K^+ channel. […] The hERG-U2OS cells suspended in culture medium were dispensed at 1000 cells/well/3μL into 1536-well, black wall/clear-bottom plates using a Multidrop Combi dispenser (Thermo Fisher, Waltham, MA, USA). After the assay plates were incubated at 37 °C overnight, 3 μL of Loading Buffer provided from FluxOR II Potassium Ion Channel Assay Kit (Life Technologies, Carlsbad, CA, USA) was added to each assay well. The assay plates were then incubated at room temperature in the dark for 1 h, followed by the addition of 23 nL of compound, dissolved in DMSO, DMSO only, or positive control, to the assay plate. Each compound was tested at 15 concentrations in three independent runs. […]
In the case of `CN1CCC[C@@H]1CCO[C@](C)(c1ccccc1)c1ccc(Cl)cc1` [Clemastine], the “activity outcome for hERG inhibition in the assay” value was “showing activity against hERG”. On the same count and under the same terms, to `CC(C)(C)c1ccc(C(=O)CCCN2CCC(OC(c3ccccc3)c3ccccc3)CC2)cc1` [Ebastine] belongs “showing activity against hERG”.

For a further series, the target named is T1, hERG. Briefly: cell-based. Particulars: (-LOG10(IC50), µM).
`CO[C@]12CC[C@@]3(C[C@@H]1C(C)(O)C(C)(C)C)[C@H]1Cc4ccc(O)c5c4[C@@]3(CCN1CC1CC1)[C@H]2O5` (some centres unmarked) [Buprenorphine hydrochloride]: it took 24.4 µM to reach half-maximal inhibition (IC50). On the same count and under the same terms, to `CCCCCCCCCCCCCCCC[n+]1ccccc1` [Cetylpyridinium bromide] belongs 11 µM. Same read-out and setting: to `CCCCCCCCCCCCCCCC[n+]1ccccc1` [Cetylpyridinium chloride] belongs 10.2 µM. On the same count and under the same terms, to `C(=C\c1ccccc1)/CN1CCN(C(c2ccccc2)c2ccccc2)CC1` [Cinnarizine] belongs 0.817 µM; to `CCN(CC)CCOc1ccc(C(=C(Cl)c2ccccc2)c2ccccc2)cc1` [Clomiphene], 3.13 µM.

`CN1CCC(=C2c3ccccc3C=Cc3ccccc32)CC1` [Cyproheptadine] gave an IC50 of 12 µM. Still for that read-out and setting: to `CCN(CC)CCOC(=O)C1(C2CCCCC2)CCCCC1` [Dicyclomine] belongs 8.17 µM; to `CN(C)CC/C=C1\c2ccccc2COc2ccccc21` [Doxepin hydrochloride], 17.9 µM. On the same count and under the same terms, to `Cc1ccccc1C(OCCN(C)C)c1ccccc1` (centres unmarked) [Orphenadrine dihydrogen citrate] belongs 25.5 µM. The same measure, in the same setting: to `Cc1ccccc1C(OCCN(C)C)c1ccccc1` (centres unmarked) [Orphenadrine hydrochloride] belongs 23.6 µM. The molecule `Clc1ccc(CSC(Cn2ccnc2)c2ccc(Cl)cc2Cl)cc1` (centres unmarked) [Sulconazole nitrate] had an IC50 of 7.86 µM. Same read-out and setting: to `O=c1n(CCCN2CCN(c3cccc(Cl)c3)CC2)nc2ccccn12` [Trazodone hydrochloride] belongs 9.52 µM.
